Read counts are not given, so values of variants with three or more changes are uncertain.
B1: LINE1-mini (parent)
chain: GGCAGAGCUCAACACAGCGUGGCAAAGUGGCUGUGGCUAGACUGCC

Variants of: B1
Experiment: self-cleavage, relative activity (ratio to wild type); higher = more cleavage; in vitro, sequencing; the parent is a self-cleaving ribozyme

Row | Variant | self-cleavage
1 | A6G C10U U34C | 0.02
2 | A6G C13A A14G C18A U20A U34A G44U | 0.01
3 | A6G C13A A24G C45A | 0.04
4 | A6G C13A C23A | 0.1
5 | A6G C13A C31G | 0.03
6 | A6G C13A G19C U28G G35U | 0.07
7 | A6G C13A G21C G22A | 0.05
8 | A6G C13A G21U C23U C45G | 0.25
9 | A6G C13A G44C | 0.09
10 | A6G C13G A25C U32A | 0.01
11 | A6G C13G C15A A41G | 0.14
12 | A6G C13G G27A C31A C37G G44C | 0.04
13 | A6G C13G G29C | 0.04
14 | A6G C13U A24C C46A | 0.04
15 | A6G C13U A24G A39U C45A | 0.03
16 | A6G C13U C37A | 0.03
17 | A6G C13U C46A | 0.08
18 | A6G C13U G21A C31U G35A | 0.02
19 | A6G C13U G22C C31A | 0.08
20 | A6G C13U G33C | 0.02
21 | A6G C13U U32G U38C | 0.25
22 | A6G C15A A16U C18U U20C U34C | 0.05
23 | A6G C15A C18A C31A | 0.02
24 | A6G C15A G22A A25G U28G U38G C45A | 0

Row | Variant | self-cleavage
25 | A6G C15A U34G | 0.03
26 | A6G C15G C18G C23G | 0.27
27 | A6G C15G G17C G19C A39G G44A | 0.01
28 | A6G C15G G17U C42A | 0.03
29 | A6G C15G G30U G36A C46A | 0.03
30 | A6G C15G G40A U43G | 0.08
31 | A6G C15G G44U | 0.01
32 | A6G C15G U32A C42A C46A | 0.01
33 | A6G C15U C31A | 0.11
34 | A6G C15U G17A G27C | 0.03
35 | A6G C15U G22U A24U A41C | 0.06
36 | A6G C15U G33C G36C C42U G44U C46U | 0
37 | A6G C15U U28A U34A G35C C45A | 0.01
38 | A6G C15U U32C G40A | 0.03
39 | A6G C15U U34C A41G | 0.13
40 | A6G C18A C31U C46A | 0.02
41 | A6G C18A C42U | 0.06
42 | A6G C18A C45G C46U | 0.06
43 | A6G C18A G21U G40A | 0.01
44 | A6G C18A G36U A39U | 0.06
45 | A6G C18G A24G | 0.13
46 | A6G C18G C31U G40C | 0
47 | A6G C18G C42A | 0.03
48 | A6G C18G G33U | 0.06

Row | Variant | self-cleavage
49 | A6G C18U G19U U32G C45A | 0
50 | A6G C18U G21U A25U | 0.19
51 | A6G C18U G30A C37G A39C | 0.08
52 | A6G C18U G33A A39U | 0.01
53 | A6G C18U G36U | 0.1
54 | A6G C18U U38G A39C G40U A41C | 0.07
55 | A6G C23A A41G C45A | 0.07
56 | A6G C23A G35C U43C | 0.03
57 | A6G C23U G33U | 0.38
58 | A6G C31G C37A A39U | 0.07
59 | A6G C31G C46A | 0
60 | A6G C31G U34C | 0
61 | A6G C31G U38C C42A C46A | 0.04
62 | A6G C31U C37U | 0.04
63 | A6G C31U C46U | 0.01
64 | A6G C37G C42G | 0.36
65 | A6G C37U C42A | 0.09
66 | A6G C37U C45U | 0
67 | A6G C45U C46A | 0.15
68 | A6G G7A A12C U28G G40A | 0
69 | A6G G7A A12G | 0.03
70 | A6G G7A A16C A41C U43G C45A | 0.03
71 | A6G G7A A39G | 0.04
72 | A6G G7A A39U | 0.04

Row | Variant | self-cleavage
73 | A6G G7A C10U C13G C42A | 0.01
74 | A6G G7A C13U A26U A41U | 0.07
75 | A6G G7A C15U C18U | 0.03
76 | A6G G7A C15U G19U G40C | 0.24
77 | A6G G7A C45G C46U | 0.31
78 | A6G G7A G17U | 0.14
79 | A6G G7A G40C | 0.12
80 | A6G G7C C13G | 0.12
81 | A6G G7C C18G A26C | 0.07
82 | A6G G7C C23G U32A | 0.08
83 | A6G G7C C42U | 0.13
84 | A6G G7C G21C G35U A41U | 0.14
85 | A6G G7C G36U | 0.03
86 | A6G G7C G40U | 0.14
87 | A6G G7C U32A | 0.06
88 | A6G G7U A12C G19U G44C | 0.02
89 | A6G G7U A12G C15A G44C | 0.01
90 | A6G G7U C10U G19A A25U A39U A41G C46A | 0.03
91 | A6G G7U C13U | 0.04
92 | A6G G7U G22A C45U | 0.02
93 | A6G G17A C23U C42A | 0.06
94 | A6G G17A G21A G30U C37G | 0.04
95 | A6G G17A G30A G35U | 0.04
96 | A6G G17A G35A C46U | 0.04

Row | Variant | self-cleavage
97 | A6G G17A U28C | 0.05
98 | A6G G17A U38C | 0.05
99 | A6G G17C A26C G29U | 0.07
100 | A6G G17C A39U A41G | 0.03
101 | A6G G17C G22U G36U A39U | 0.03
102 | A6G G17U A25G G33U U43A | 0.05
103 | A6G G17U C18U | 0.02
104 | A6G G17U C23U G35U | 0.04
105 | A6G G17U C46U | 0.02
106 | A6G G19A A25C A26U G29A C45U | 0.36
107 | A6G G19A G35U | 0
108 | A6G G19A U20G C31A C45A | 0.1
109 | A6G G19U A24G U32C G36C | 0.01
110 | A6G G19U G21C | 0.01
111 | A6G G19U G22A G27U | 0.03
112 | A6G G19U G29U U43G | 0.03
113 | A6G G21A G29A C45U | 0.11
114 | A6G G21A U34G | 0.03
115 | A6G G21A U38C G44A | 0.07
116 | A6G G21C A25C G27C | 0.07
117 | A6G G21C G36U | 0.09
118 | A6G G21U A26U G29U U43A | 0.01
119 | A6G G21U C23A | 0.06
120 | A6G G21U C23A C46G | 0.27

Row | Variant | self-cleavage
121 | A6G G21U C31U G36U | 0.02
122 | A6G G21U C46U | 0.05
123 | A6G G21U G22C C23A | 0.52
124 | A6G G21U G29C | 0.07
125 | A6G G21U G29U G40A | 0.05
126 | A6G G21U G40U | 0.16
127 | A6G G21U U32G | 0.05
128 | A6G G22A C31A | 0.02
129 | A6G G22A C31A G44C | 0.04
130 | A6G G22C G33A | 0.06
131 | A6G G22C U38C | 0.04
132 | A6G G22U G30C C46U | 0.14
133 | A6G G27A G33A | 0.04
134 | A6G G27A U28A C45U | 0.07
135 | A6G G27A U34C | 0.08
136 | A6G G27C G30C | 0.03
137 | A6G G27U G35A | 0.16
138 | A6G G27U G40A | 0.09
139 | A6G G27U U28C | 0.11
140 | A6G G29C G30U C46G | 0.03
141 | A6G G29U C45A | 0.08
142 | A6G G30C C31A C37U C46U | 0.01
143 | A6G G30C C45G | 0.06
144 | A6G G30C G40A | 0.08

Row | Variant | self-cleavage
145 | A6G G30C G44A | 0.22
146 | A6G G30C U43G C45U | 0.34
147 | A6G G30U G33A | 0.03
148 | A6G G33A G35A | 0.06
149 | A6G G33C A41U | 0.03
150 | A6G G35A A41U | 0.03
151 | A6G G35A G36C U38A | 0.04
152 | A6G G35C G44C C45A | 0.14
153 | A6G G35U U43G | 0.03
154 | A6G G36A C46U | 0.07
155 | A6G G36C G44C | 0.01
156 | A6G G40A A41C C42U G44A | 0.08
157 | A6G G40U C45U | 0.1
158 | A6G U9A A11C U20C G35U | 0.01
159 | A6G U9A A24G G29C G33U | 0.01
160 | A6G U9A A39G | 0.27
161 | A6G U9A C23A C37A | 0.02
162 | A6G U9A G17U A26U | 0.03
163 | A6G U9C A12C U38A | 0
164 | A6G U9C A14U | 0.03
165 | A6G U9C A41G | 0.01
166 | A6G U9C C10G A16U U20A G22U U34G | 0.01
167 | A6G U9C C10U C13G G22U G27U G29U | 0.01
